Results as given in patent US4990518A, “Pharmacologically active heteroaryl substituted imidazo (4,5-c) pyridines” (G. D. Searle & Co., priority 1989, dated 1991).

Target: PAF receptor (Human Platelet Membrane Receptors) (Homo sapiens, UniProt P25105)
Assay: Inhibition of ^3 H-PAF Binding to Human Platelet Membrane Receptors
Conditions: read-out: Inhibition of ^3 H-PAF Binding to Human Platelet (% Inhib.)
Protocol: Inhibition of ^3 H-PAF Binding to Human Platelet Membrane Receptors
Receptor Preparation: Ten units of in-dated human packed platelets, each containing 45-65 ml platelet rich-plasma, were purchased from a commercial blood bank. Disposable plasticware was used throughout for receptor preparation. The units were pooled and a 1 ml aliquot was removed for determination of platelet concentration, using a Coulter Counter. […] Protein content was determined by a fluorescamine protein assay.
Assay Methods: Receptor Characterization--Each receptor preparation was evaluated to determine the number of receptor populations, the number of PAF receptor equivalents/mg protein and the dissociation constant (KD) for PAF binding. This required 2-3 experiments in which the protein concentration was held constant and the ^3 H-PAF ligand concentration was varied from approximately 0.10-2.5 nM and the data was analyzed by Scatchard methodology. […]
Assay Methods: Routine Assay of Compounds--The compounds were weighed precisely and solubilized in quantities of DMSO such that a 5 μl aliquot in the incubate would deliver the desired compound concentration. Compounds tested for the first time in this assay were evaluated at a concentration of 50 μM in the incubation medium. […]

UniProt P25105, sequence (P25105 whole entry): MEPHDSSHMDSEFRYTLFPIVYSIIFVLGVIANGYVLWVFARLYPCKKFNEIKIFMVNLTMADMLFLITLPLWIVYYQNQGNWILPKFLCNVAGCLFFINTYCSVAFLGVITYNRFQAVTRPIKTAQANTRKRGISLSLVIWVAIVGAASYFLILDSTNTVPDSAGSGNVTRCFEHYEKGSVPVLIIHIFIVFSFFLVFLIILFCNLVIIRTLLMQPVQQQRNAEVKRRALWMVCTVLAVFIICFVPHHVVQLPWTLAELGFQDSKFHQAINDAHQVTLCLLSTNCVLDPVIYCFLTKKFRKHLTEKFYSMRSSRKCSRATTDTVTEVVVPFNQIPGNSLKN

| inhibition at 50 µM [%] | Compound |
| --- | --- |
| 37 to 62 | O=C(c1ccc(Cn2ccc3ncnc-3c2)o1)N(C1CCCCC1)C1CCCC1 [Example 3] |
| 42 | CN(C(=O)c1ccc(Cn2ccc3ncnc-3c2)o1)C1CCCCC1 [Example 2, N-cyclohexyl-5-[(5H-imidazo[4,5-c]pyridin-5-yl)methyl]N-methyl-2-furancarboxamide] |
